This is one part of the list.

Sequences and labels used below:
T1: UNK ZnF1-6 (called full-length) (human, UniProt Q9C0B0 30-357)
T1 sequence: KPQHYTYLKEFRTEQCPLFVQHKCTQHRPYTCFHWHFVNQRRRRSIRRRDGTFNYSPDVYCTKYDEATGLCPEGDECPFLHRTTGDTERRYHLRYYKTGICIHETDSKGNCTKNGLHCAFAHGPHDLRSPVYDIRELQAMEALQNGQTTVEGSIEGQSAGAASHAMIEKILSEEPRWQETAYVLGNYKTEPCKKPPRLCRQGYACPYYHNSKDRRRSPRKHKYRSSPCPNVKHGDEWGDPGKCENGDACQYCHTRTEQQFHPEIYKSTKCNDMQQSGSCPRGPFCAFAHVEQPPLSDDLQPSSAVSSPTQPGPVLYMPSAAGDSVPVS

B1: chr6:1612588:1612689:+|3pUTR|ENSG00000054598|msi1|FALSE|unique (ssRNA)
RNA: GGGAGUUCUACAGUCCGACGAUCUUUAUUCAUGGACUUGUUUUAAAAUGUAAAUUGCAACAUAGUAAUUUAUUUUUAAUUUGUAGUUGGAUGUCGUGGACCAAACGCCAGAAAGUGUUCCCAAAACCUGACGUUAAAUUGCCUCAACAGAGGAUUGAGCAUCA
B2: chr2:130338606:130338707:-|3pUTR|ENSG00000136710|unk|FALSE|unique (ssRNA)
RNA: GGGAGUUCUACAGUCCGACGAUCUACUCAGCCAAAAGAUCAGGACAAUAUGACUUGAGUCCACAAGGACACAAACACCUGAGUAGCUGGGCAGCCCUUGGCAGGGUCUAAGCCAGGAAGUAAAAAUGAUCUGGCCUAGAUAUUCAACAGAGGAUUGAGCAUCA
B3: ENSG00000070961:be:win_5451|3pUTR|ENSG00000070961|bound_else_gene|NA|bound_elsewhere_windowed (ssRNA)
RNA: GGGAGUUCUACAGUCCGACGAUCUGAUAUUUUUGGUGGGUGGGGGAAAUCUUUUUCUCACCAUCAAAUCUUUGCAGUAAUCCUCUGCAGGUCUUAGAAACACAUUGGCUCUGUCAGCAUUUGUAAUUGUACAUUUAUUCAUCACAACAGAGGAUUGAGCAUCA
B4: chr12:53210768:53210868:-|3pUTR|ENSG00000172819|msi1_unk|total|mutant (ssRNA)
RNA: GGGAGUUCUACAGUCCGACGAUCAGGGGGGAUGCUGCUCCGCUGAUCCCGCCCUGACCCAGAGGAAGCCUCUAUUUAUUUAUCCGCUUUUGUUUACACCGUGGAAUUGACCCCUUCCUCCAGGGGUCUUGGGUGGGGGAGCCCCAACAGAGGAUUGAGCAUCA
B5: chr20:34845330:34845491:-|CDS|ENSG00000131067|control|control|control (ssRNA)
RNA: GGGAGUUCUACAGUCCGACGAUCUGAGUUCACAGAGGAAGAGAUUGAGUUCCUGGAAGCCAGGGGUCACCACGUGGAGAAAGUAGAUGUCUUAUCCUGGGUCCAUGGCAGCCGAAGGACCAACAACUUCAUCAUCGCUGUUAACAACAGAGGAUUGAGCAUCA
B6: chr10:74118697:74119064:+|3pUTR|ENSG00000035403|msi1|total|mutant (ssRNA)
RNA: GGGAGUUCUACAGUCCGACGAUCGAAGAAAUCACAGAAUCAUAUGAUUCUGCUUUUACCAUGCCCCUGAGCAAUGUCUGUGCCCGGGAAACUUCCCGUCCCAUAUCCUGCCUCAGCCCGCCAAGGCCGCCAUCCCAUGAACACCAACAGAGGAUUGAGCAUCA
B7: ENSG00000140391:stop:overlap|stop_codon|ENSG00000140391|stop_codon|NA|stop_codon (ssRNA)
RNA: GGGAGUUCUACAGUCCGACGAUCUGUGCAGAAGGAGUAGAGAUCCUGCUUACGAGCUCCUCAUCACUGGCGGAACCUAUGCAUAGUUGACAACUCAAGCCUGAGCUUUUUGGUCUUGUUCUGAUUUGGAAGGUGAAUUGAGCACAACAGAGGAUUGAGCAUCA
B8: chr12:13219749:13219850:+|3pUTR|ENSG00000134531|unk|total|mutant (ssRNA)
RNA: GGGAGUUCUACAGUCCGACGAUCACAACAGUGGAUGGGGAGGAAGAACAGACUUUUGAGCUCUUCCCAAUACCGGAAUGUGUCCGUUCUAAAAAUUUUCUUAAGUUGUUUGCUUGGAACUCAGAGUAUAUUUUUCCAUACGAACAACAGAGGAUUGAGCAUCA
B9: ENSG00000136451:be:win_451|CDS|ENSG00000136451|bound_else_gene|NA|bound_elsewhere_windowed (ssRNA)
RNA: GGGAGUUCUACAGUCCGACGAUCAGUGCCAGCACCACAGCUAUGCCAGUGACCCAGUCUGUCAAGAAACCCAGUAAGCCUGUCAAGAAGAACCAUGCUUGUGAGAUGUGUGGGAAGGCCUUCCGAGAUGUGUACCAUCUCAAUCAACAGAGGAUUGAGCAUCA
B10: chr17:40866619:40867186:-|CDS|ENSG00000187242|control|control|control (ssRNA)
RNA: GGGAGUUCUACAGUCCGACGAUCUGAUAGAUUAGCUUCCUACCUGGAUAAGGUGCGAGCUCUAGAAGAGGCUAAUACUGAGCUAGAAAAUAAAAUUCGAGAAUGGUAUGAAACACGAGGAACUGGGACUGCAGAUGCUUCACACAACAGAGGAUUGAGCAUCA
B11: chr14:31448161:31448454:-|three_prime_utr|ENSG00000129480|control|control|control (ssRNA)
RNA: GGGAGUUCUACAGUCCGACGAUCUGGAAAAGAAGAAGGGUUUGAACUUUACUCUCAAUUUGUGACUCUAUGUGAAAAAGAAGUAGCUGCUAAUAGCAAGUGUGCUGAAGCUAGGGUUGUAGUGGAACAUGGCACUUAUGGGAACAACAGAGGAUUGAGCAUCA
B12: chr12:49127802:49127903:-|3pUTR|ENSG00000123416|msi1_unk|FALSE|overlapping (ssRNA)
RNA: GGGAGUUCUACAGUCCGACGAUCAUGUCAUGCUCCCAGAAUUUCAGCUUCAGCUUAACUGACAGACGUUAAAGCUUUCUGGUUAGAUUGUUUUCACUUGGUGAUCAUGUCUUUUCCAUGUGUACCUGUAAUAUUUUUCCAUCACAACAGAGGAUUGAGCAUCA
B13: chr10:91942452:91942553:+|CDS|ENSG00000095564|unk|FALSE|unique (ssRNA)
RNA: GGGAGUUCUACAGUCCGACGAUCAGUUCUAUGGAAGAUUCACCUACUACAGAGCGAUUGAAUUUUGACAGAUUUGAUAUAUGUAGAUUGUUACAACAUGGUGCAUCACUCCUGGGAUCUGCUGGUGCCGAAUUUGAAGUCCAACAACAGAGGAUUGAGCAUCA
B14: ENSG00000166402:stop:overlap|stop_codon|ENSG00000166402|stop_codon|NA|stop_codon (ssRNA)
RNA: GGGAGUUCUACAGUCCGACGAUCGUGCACUGCAGGCCUUUGCCAUUGCCCUGUCCAGCUUCGACAGCAAGCUGGCGUGCGAGUAGAGGCCUCUUCGUGCCCUUUGGGGUUGCCCAGCCUGGAGCGGAGCUUGCCUGCCUGCCUCAACAGAGGAUUGAGCAUCA
B15: ENSG00000107863:be:win_401|CDS|ENSG00000107863|bound_else_gene|NA|bound_elsewhere_windowed (ssRNA)
RNA: GGGAGUUCUACAGUCCGACGAUCGCAAAACCUAUUCCCAAGUAAUUGCUUUAAUUCAAAACAGUGAUACAACAUUGGAACUUAGUGUUAUGCCAAAAGAUGAAGACAUUCUCCAAGUGCUACAGUUUACAAAGGAUGUCACAGCAACAGAGGAUUGAGCAUCA
B16: chr14:102729990:102730091:+|3pUTR|ENSG00000089902|msi1|total|mutant (ssRNA)
RNA: GGGAGUUCUACAGUCCGACGAUCUGCGAUGCUCUUUCUGCCAGUCCCUGAAUCUCUGCAGCUUCUCUUACCUGUCUUACCUGCCGUAAAGCACAAUUGCAGUGGCGUCGCAUUCAGAAGAAGGGAAGGUCAGCAGAGGCUAUGCAACAGAGGAUUGAGCAUCA
B17: chrX:112630647:112631419:-|three_prime_utr|ENSG00000182508|control|control|control (ssRNA)
RNA: GGGAGUUCUACAGUCCGACGAUCAGAAGAUUGGAGAGGGUGGGAAAGGGGAGGAGGGAGCCCUGAAAAGAGGUACUAAGGAUUAGGCCAUUUGUCAUCUGACUGUCAUUAGCAUAGCCUAGUGUUUGCAUGCUUUUUAAACUACAACAGAGGAUUGAGCAUCA
B18: chr9:83806335:83806438:-|CDS|ENSG00000165113|unk|FALSE|unique (ssRNA)
RNA: GGGAGUUCUACAGUCCGACGAUCUGGCUCUGAUUCUGAACCUGGAAAAGGUAAAGGUCGAAAUACUGGAAAGUCUCAAACUUUAGGAAGCAAGUCAACUACAAAUGAGAAAAAAAGAGAGAAAAGAAGAAAAAAGAAGGAACACAACAGAGGAUUGAGCAUCA
B19: chr15:42211119:42211220:-|3pUTR|ENSG00000103978|unk|total|mutant (ssRNA)
RNA: GGGAGUUCUACAGUCCGACGAUCAGGUUACAUCUUGCAGAGGUUGUUUUGAGAAAAAAGGGCCCUUCUGAGUUAAGGAGCCACCGUUCUAUCAAUGAUCAAAAGAAAAAAAAAAAAAGAGAAACUGUUACAGUAUGAUUCAGACAACAGAGGAUUGAGCAUCA

This assay deals with T1, UNK ZnF1-6 (called full-length). Nature of the assay: nsRBNS (natural sequence RNA bind-n-seq); RBNS binding buffer (assumed for nsRBNS): 25 mM Tris pH 7.5, 150 mM KCl, 3 mM MgCl2, 0.01% Triton X-100, 500 ug/ml BSA, 20 U/ml SUPERase-In, 4 C; UNK is unkempt and MSI1 is Musashi-1; names of the RNAs are library labels; protein concentration not given here; high values mean tight binding.
Turning to B1, the binding signal was found to be 0.455 enrichment R. With B2, the binding signal amounted to 0.466 enrichment R. The molecule B3 came in with a binding signal of 0.936 enrichment R. Next, B4: 1.11 enrichment R; B5: 0.85 enrichment R. As to B6, the binding signal came to 0.805 enrichment R. Next, B7: 1.41 enrichment R; B8: 0.58 enrichment R. As to B9, the binding signal worked out at 0.59 enrichment R. Next, B10: 0.986 enrichment R; B11: 0.39 enrichment R. The molecule B12 displayed a binding signal of 0.751 enrichment R. B13 gave a binding signal of 0.337 enrichment R. B14 gave a binding signal of 0.658 enrichment R. B15 displayed a binding signal of 0.38 enrichment R. Regarding B16, the binding signal was determined as 0.539 enrichment R. In the case of B17, the binding signal is 1.14 enrichment R. B18 displayed a binding signal of 1.04 enrichment R.

Turning to B19, the binding signal was 0.451 enrichment R.

Source of the values: publication PMC12136788.
